Source: PMC4336329 (PLoS ONE, 2015)
Hit rate of the full screen: of about 310,000 compounds, about 14,000 (4.5%) showed an effect of 50% or more. The effect is printed as a negative number. The list shows a part of the results.

Target: human ether-à-go-go-related gene (hERG) potassium channel (human, UniProt Q12809)
Test: primary screen, population patch clamp on CHO cells stably expressing hERG
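Also: peak tail current of the secondary pulse compared with the same well before compound.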

Sequence of human ether-à-go-go-related gene (hERG) potassium channel (Q12809 whole entry, looked up): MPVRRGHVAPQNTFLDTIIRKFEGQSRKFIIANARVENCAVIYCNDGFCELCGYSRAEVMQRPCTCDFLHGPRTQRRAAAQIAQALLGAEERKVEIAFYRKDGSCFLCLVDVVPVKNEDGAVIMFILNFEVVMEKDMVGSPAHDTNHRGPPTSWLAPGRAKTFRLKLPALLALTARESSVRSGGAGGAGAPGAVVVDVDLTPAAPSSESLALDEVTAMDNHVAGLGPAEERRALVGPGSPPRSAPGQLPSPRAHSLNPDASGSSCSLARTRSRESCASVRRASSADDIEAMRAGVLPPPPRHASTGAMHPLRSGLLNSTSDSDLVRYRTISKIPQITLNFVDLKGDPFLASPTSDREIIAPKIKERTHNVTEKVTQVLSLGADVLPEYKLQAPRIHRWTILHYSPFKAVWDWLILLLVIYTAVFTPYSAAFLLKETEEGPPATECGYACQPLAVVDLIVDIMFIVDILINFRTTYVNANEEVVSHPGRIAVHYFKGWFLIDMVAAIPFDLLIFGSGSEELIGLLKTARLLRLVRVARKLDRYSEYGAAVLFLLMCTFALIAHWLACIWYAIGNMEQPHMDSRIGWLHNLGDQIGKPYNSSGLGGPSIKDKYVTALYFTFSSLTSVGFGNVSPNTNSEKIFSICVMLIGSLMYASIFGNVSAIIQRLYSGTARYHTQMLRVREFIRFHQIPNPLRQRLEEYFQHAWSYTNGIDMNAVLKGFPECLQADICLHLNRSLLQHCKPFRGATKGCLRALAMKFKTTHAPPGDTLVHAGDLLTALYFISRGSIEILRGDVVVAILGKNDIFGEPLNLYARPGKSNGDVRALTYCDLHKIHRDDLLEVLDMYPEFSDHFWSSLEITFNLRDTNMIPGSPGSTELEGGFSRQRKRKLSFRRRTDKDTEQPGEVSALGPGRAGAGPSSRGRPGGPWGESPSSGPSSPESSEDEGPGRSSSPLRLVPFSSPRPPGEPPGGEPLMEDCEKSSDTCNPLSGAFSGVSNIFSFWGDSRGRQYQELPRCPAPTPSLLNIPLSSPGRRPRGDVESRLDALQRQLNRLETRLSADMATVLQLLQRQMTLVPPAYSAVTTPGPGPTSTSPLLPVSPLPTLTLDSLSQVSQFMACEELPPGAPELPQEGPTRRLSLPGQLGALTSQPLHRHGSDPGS

| SMILES | hERG current change (%, negative = inhibition) at 10uM [%] |
| --- | --- |
| NC(=O)c1cc(-c2csc(-c3cccnc3)n2)ccc1O | 5.27 |
| c1ccc(N=C(c2cccs2)N2CCOCC2)cc1 | 17.4 |
| COc1ccccc1C(=O)OC(C)CN1CCN(C)CC1.Cl (stereo not shown) | 8.56 |
| COc1ccc(C(=O)Nc2ccc(NC(=O)c3ccco3)c(Cl)c2)cc1OC | 3.19 |
| Cn1c(SCC(=O)N2c3ccccc3Sc3ccccc32)nc2ccccc21 | -4.56 |
| CCc1ccc(NC(=O)COC(=O)CCc2nc3cc(S(=O)(=O)N(CC)CC)ccc3n2C)cc1 | -60 |
| O=C(NCCN1CCOCC1)Nc1ccc(F)cc1 | 37.3 |
| CC1(C)CCc2cc(-c3ccn(S(=O)(=O)c4ccccc4Cl)n3)ccc2O1 | 9.53 |
| CCOC(=O)C(C)Sc1nc2c(c(=O)[nH]c(=O)n2C)n1C/C=C(/C)Cl (stereo not shown) | -72.8 |
| CCOC(=O)C1=C(COC(=O)c2ccccc2OC(F)F)NC(=O)NC1C (stereo not shown) | 5.86 |
| Cn1ccc(NC(=O)c2ccc(Cl)cc2Cl)n1 | 7.79 |
| CCOc1ccc(C(=O)CCNC(Cc2cnc[nH]2)C(=O)O)cc1 (stereo not shown) | -1.69 |
| CCOc1ccccc1/C=N/NC(=O)c1cccc(Cl)c1 | 5.46 |
| O=c1[nH]c(=O)n(-c2ccccc2F)c(O)c1C=NCCC1=CCCCC1 | 25.6 |
| Cc1cccc(-n2c(SCC(=O)N(C)C3CCS(=O)(=O)C3)nc3ccccc3c2=O)c1C (stereo not shown) | -2.19 |
| O=C(COc1ccc(S(=O)(=O)N2CCOCC2)cc1)NCC1CCCO1 (stereo not shown) | -15.1 |
| Cc1cc(C(=O)CSc2ncccn2)c(C)n1-c1cccc(F)c1 | -5.48 |
| C=CCN1C(=O)C2(OCCCO2)c2ccccc21 | 4.84 |
| COc1ccc(CN2CCN(C3CCC3)CC2CCO)cc1C (stereo not shown) | 8.14 |
| COc1ccccc1NS(=O)(=O)c1cc(NC(=O)C(C)C)ccc1N1CCCCC1 | 4.42 |

| SMILES | hERG current change (%, negative = inhibition) at 10uM [%] |
| --- | --- |
| O=C(CNC(=O)c1ccc2c(c1)OCO2)N/N=C(Br)/C=C/c1ccccc1 | -18.3 |
| COc1ccc(OC)c(C2C(C(=O)Nc3ccc(F)cc3)=C(C)Nc3nc(CCCO)nn32)c1 (stereo not shown) | 1.03 |
| O=C(CCn1c(=S)oc2ccccc21)NC1CCCCC1 | 11.5 |
| Cc1cc(C)c(S(C)(=O)=O)c(S(=O)(=O)c2ccc(Cl)cc2)n1 | -12.3 |
| COc1ccc(Cl)cc1NC(=O)C/C(C)=N/NC(=O)COc1ccc(C)cc1 | -29.9 |
| COc1ccccc1CC(=O)Nc1ccc2c(C)cc(=O)oc2c1 | -0.223 |
| COc1ccccc1-n1c2nc3ccccc3nc2c2c(=O)n(-c3cc(C)cc(C)c3)cnc21 | -14.8 |
| COc1ccc(N2CCN(C(=O)CCc3nnc4ccc(N5CCCC5)nn34)CC2)cc1 | -7.68 |
| COCCn1c(CN2CCc3ccccc3C2)nc2c1c(=O)n(C)c(=O)n2C | -11.5 |
| COc1ccc2oc(C(=O)Nc3ccccc3N3CCOCC3)c(C)c2c1 | 11.2 |
| NC(=O)CN1CCN(c2cccc(Cl)c2)CC1 | 0.166 |
| COc1ccc(C(=O)OCC(=O)N2CCCCCC2)cc1S(=O)(=O)N1CCOCC1 | -11.6 |
| CCOC(=O)c1c(NC(=O)CSc2n[nH]c(CNc3ccccc3)n2)sc(C)c1C | 2.35 |
| Cc1ccc(NC(=O)Cn2nnc(C(=O)Nc3ccc(C)c(C)c3)c2N)cc1 | -6.32 |
| O=C(c1cccc(F)c1)N1CCN(C(=O)c2cc3ncc(Br)cn3n2)CC1 | 9.84 |
| O=C(Nc1ccccc1)C1CC(=O)N(C2CCCCC2)C1 (stereo not shown) | 3.91 |
| Cn1c(-c2ccccc2)cccc1=O | -0.353 |
| COC(=O)c1ccc(COC(=O)c2c(C)nn(Cc3ccccc3Cl)c2Cl)o1 | 10.9 |
| CC(C)Cc1nc2sc3c(c2c(=O)n1N)CC(C(C)C)OC3 (stereo not shown) | 9.24 |
| O=C(NCC1CCCO1)/C(=C\c1ccc(Cl)cc1)NC(=O)c1ccccc1 (stereo not shown) | -12.1 |

| SMILES | hERG current change (%, negative = inhibition) at 10uM [%] |
| --- | --- |
| Cc1cc(NS(=O)(=O)c2ccc3c(c2)OCCO3)no1 | 1.49 |
| COc1ccc([N+](=O)[O-])cc1N(CC1CO1)S(=O)(=O)c1ccc(C)cc1 (stereo not shown) | 4.42 |
| Cc1nc(Cl)cc(N/N=C/c2ccc(O)cc2O)n1 | -2.09 |
| COc1ccc2nc(Cl)cc(Cl)c2c1 | 20.9 |
| CCS(=O)(=O)CCSc1nc(C)cc(C)n1 | 6.45 |
| Cc1ccc(N2C(=O)CCC(C(=O)O)C2c2cccs2)cc1 (stereo not shown) | 34 |
| CCOC(=O)N1CCC(N2CCN(Cc3ccccc3)C(CCO)C2)CC1 (stereo not shown) | -9.9 |
| O=[N+]([O-])c1cc(S(=O)(=O)N2CCCC2)ccc1N/N=C/c1ccncc1 | -17.2 |
| CCCn1c2ccccc2c2nnc(SCC(=O)Nc3cc(C)on3)nc21 | -0.11 |
| Cc1c(C(=O)OCC(=O)N2CCCCC2C)oc2ccccc12 (stereo not shown) | 14.6 |
| O=C(NCCCc1nc2ccccc2[nH]1)c1cccs1 | -5.12 |
| COc1ccc(NC(C)=O)cc1NC(=O)c1ccc2ccccc2c1 | -25.5 |
| O=C1CSC(c2cccc(F)c2)N1c1ccccc1 (stereo not shown) | 12.8 |
| CN(C)CCNC(=O)COc1ccc(C23CC4CC(CC(C4)C2)C3)cc1.Cl | -18.9 |
| Cc1cc(C)n(CC(O)COc2ccccc2C)n1 (stereo not shown) | -4.84 |
| CCOC(=O)c1cc(=O)n2[nH]c(-c3ccc(C)cc3)cc2n1 | 12.1 |
| CCN(CC)C(=O)N1CCc2ccccc2C1CN1C(=O)c2ccccc2C1=O (stereo not shown) | -15.3 |
| Cc1ccc(-c2nc3cccnc3s2)cc1NS(=O)(=O)c1ccc2c(c1)CCCC2 | 5.81 |
